Data reported in PubChem BioAssay AID360 (National Center for Advancing Translational Sciences (NCATS), 2006).
Out of some 48,000 compounds screened, about 550 (1.1%) were called active. Another 4% or so got no clear call; they are omitted. Cut-off read from the data, not from the text of the source: active = potency below about 15 µM; inconclusive = mostly about 16 µM to 33 µM; inactive = weaker than that. The list shows a part of the results.

target: Lysosomal acid glucosylceramidase (Homo sapiens) (UniProt P04062); test: Glucocerebrosidase; settings: purified enzyme, resorufin glucoside fluorescence (screen aimed at inhibitors), 20 min;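 note: the screen sought inhibitors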
UniProt P04062, sequence (P04062 whole entry, looked up): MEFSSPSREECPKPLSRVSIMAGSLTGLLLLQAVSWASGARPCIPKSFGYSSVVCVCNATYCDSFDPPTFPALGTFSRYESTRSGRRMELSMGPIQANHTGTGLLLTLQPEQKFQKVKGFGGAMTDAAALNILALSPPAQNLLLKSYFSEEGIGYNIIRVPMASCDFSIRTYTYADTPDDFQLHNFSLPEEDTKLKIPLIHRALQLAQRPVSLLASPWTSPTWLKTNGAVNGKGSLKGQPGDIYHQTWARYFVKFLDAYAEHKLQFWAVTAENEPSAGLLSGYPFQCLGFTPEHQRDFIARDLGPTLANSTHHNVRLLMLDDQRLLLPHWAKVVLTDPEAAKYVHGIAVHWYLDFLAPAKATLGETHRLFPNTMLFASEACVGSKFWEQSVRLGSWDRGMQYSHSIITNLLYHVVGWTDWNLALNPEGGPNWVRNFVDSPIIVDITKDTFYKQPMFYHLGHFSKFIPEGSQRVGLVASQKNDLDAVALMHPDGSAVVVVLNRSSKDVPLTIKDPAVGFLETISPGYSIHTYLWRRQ
How it was run: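 Wild-type enzyme at 0.2 nM final in 50mM citric acid/KH2PO4, 10mM sodium taurocholate, 0.01% tween-20, pH 5.9, with resorufin beta-D-glucopyranoside at 30 uM final. Compounds titrated, 20 min at RT, red fluorescence read; AC50 from titration.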
Potency is the fitted concentration of half-maximal effect.

Potency, inactive:
Cc1ccc(-c2noc(CN(C(=O)C34CC5CC(CC(C5)C3)C4)C(C)C)n2)cc1 > 76.9 µM, O=C(CN1CCCCC1)Nc1cc(Cl)ccc1Cl > 76.9 µM, CCC1CCCCN1C(=O)CSc1nnc(CNC(=O)c2ccco2)o1 (stereo not given) > 76.9 µM, COc1ccccc1CNC(=O)C1CC(=O)N(C2CCCC2)C1 (stereo not given) > 76.9 µM, COc1cccc(C(CC(=O)NCCN2CCOCC2)NS(=O)(=O)c2ccc(C)cc2)c1OC (stereo not given) > 76.9 µM, CCc1ccc(S(=O)(=O)NCc2cn3ccccc3n2)s1, O=C1OCCC1Sc1nc2ccccc2n1Cc1ccccc1 (stereo not given) > 76.9 µM, CCN1CCN(Cc2nc3c(c(=O)n(C)c(=O)n3C)n2CCCc2ccccc2)CC1 > 76.9 µM, CCS(=O)(=O)c1ccc(O)c(NC(=O)Nc2ccccc2)c1 > 76.9 µM, COc1ccc(N2CCC(CNC(=O)Nc3ccc(OC)cc3OC)C2)cc1 (stereo not given) > 76.9 µM, CCOC(=O)Nc1ccc2c(c1)N(C(=O)CN1CCN3CCCC3C1)c1ccccc1CC2 (stereo not given) > 76.9 µM, Cc1cccc(NC(=O)CS(=O)(=O)c2c[nH]c3ccccc23)c1C > 76.9 µM, CCC1CCCCN1CCCNC(=O)Cn1nc(-c2ccc(C)cc2)ccc1=O (stereo not given) > 76.9 µM, COC(=O)c1ccc(Cn2c(CN3CCOCC3)nc3ccccc3c2=O)o1 > 76.9 µM, Cc1noc(C)c1COC(=O)C1COc2ccccc2O1 (stereo not given) > 76.9 µM, COc1ccc(Br)cc1CNC(=O)CCc1nc(-c2ccc(C)cc2)no1 > 76.9 µM, Cc1ccc(S(=O)(=O)N2CCCN(S(=O)(=O)c3ccc(C(F)(F)F)cc3)CC2)cc1 > 76.9 µM, O=c1nc(N2CCOCC2)ccn1-c1nc(-c2ccccc2)oc1-c1ccccc1 > 76.9 µM, O=c1[nH]c2c(cc1CNCCN1CCOCC1)c(-c1cccc(F)c1)nn2-c1ccccc1 > 76.9 µM, CCN(CC)S(=O)(=O)c1cccc(C(=O)OCc2cc(=O)n3nc(C)sc3n2)c1 > 76.9 µM, Cc1cc(Br)c(S(=O)(=O)n2nnc3ccccc32)cc1C > 76.9 µM, c1csc(-c2csc3ncnc(NCCCN4CCOCC4)c23)c1, Cn1c(=O)c2cc(S(=O)(=O)N3CCOCC3)ccc2n(C)c1=O > 76.9 µM, CC(CC(C)C(=O)N1CCOCCN(C(=O)C(C)CC(C)C(=O)O)CCOCC1)C(=O)O (stereo not given) > 76.9 µM, O=C(NC1CCCC1)c1nc2c(nnn2Cc2cccc(Cl)c2)c(=O)[nH]1 > 76.9 µM, O=C(Nc1ccccc1)NC1(C(=O)NCc2ccc3c(c2)OCO3)CCCCC1 > 76.9 µM, NCCN1CCN(CCN)CC1 > 76.9 µM, CCN(CC)C(=O)c1cn(C)c(=O)c2cc(OC)c(OC)cc12 > 76.9 µM, NC(=O)CCn1c(=O)oc2ccccc21 > 76.9 µM, CNC(=O)n1ccc(C(=O)N2CCCCC2)n1 > 76.9 µM, CCN1C=C(Cc2cccs2)C2=C(C1)C(c1cccs1)C(C#N)=C(N)O2 (stereo not given), COC(=O)c1sccc1NC(=O)c1cc(C)on1 > 76.9 µM, CCCC(=O)Nc1ccc(N2CCN(C(=O)c3cccs3)CC2)cc1 > 76.9 µM, COc1ccc(OC)c(C2C(C(=O)O)c3ccccc3C(=O)N2C)c1 (stereo not given) > 76.9 µM, CCCc1cc(=O)[nH]c(SCC(=O)N(CC)Cc2ccccc2)n1 > 76.9 µM, Cc1ccccc1C(=O)NCc1ccncc1 > 76.9 µM, CC(=O)N(C)C1(c2nnnn2CCOC(=O)Nc2cccc3ccccc23)CCCC1 > 76.9 µM, CC(C)CNC(=O)c1cc(-c2ccc(Cl)c(Cl)c2)on1 > 76.9 µM, Cc1ccc(CNC(=O)C2CCCCC2C(=O)O)cc1 (stereo not given) > 76.9 µM, COc1ccc(C(C)=O)cc1COC(=O)c1ccc2c(c1)OCO2 > 76.9 µM, CCOC(=O)C1=C(C)NC(=O)NC1c1ccc(OCC(=O)OC)c(OC)c1 (stereo not given) > 76.9 µM, COC(=O)c1ccc(C2CC(=O)NC3=C2C(=O)CCC3)cc1 (stereo not given) > 76.9 µM, COC(=O)c1c(NC(=O)c2ccco2)sc(C(=O)N2CCCC2)c1C > 76.9 µM, Cn1c(=NC(=O)c2cnccn2)sc2ccccc21 > 76.9 µM, O=C1CN(C(=O)COC(=O)Cc2ccsc2)c2ccccc2N1 > 76.9 µM, Nc1nc2c3ccccc3nc(Cc3ccccc3)n2n1 > 76.9 µM, Cc1ccc(NC2=NC(c3ccc(C)cc3)n3c(nc(C)cc3=O)N2)cc1 (stereo not given) > 76.9 µM, COCCNC(=O)Cn1c(=O)n(CCC(=O)NCCc2ccccc2)c(=O)c2ccccc21 > 76.9 µM, COc1ccc(C(=O)n2nc(-c3ccc(C)cc3)nc2N)cc1OC > 76.9 µM, CCS(=O)(=O)N1CCN(C(=O)CC(C)C)CC1 > 76.9 µM, O=C(NCCN1CCCCCC1)C1CC(=O)N(CCc2ccccc2)C1 (stereo not given) > 76.9 µM, CCCCSc1nnc([C@H](C)NC(=O)OC(C)(C)C)o1 > 76.9 µM, CCn1c(SCC(=O)N(C(C)C)C(C)C)nnc1-c1cc2ccccc2cc1O > 76.9 µM, Cn1c(=O)c2c(nc(SCC(=O)O)n2Cc2cccc(C(F)(F)F)c2)n(C)c1=O > 76.9 µM, CCC(C)N(CC(=O)NCc1ccc(OC)cc1)C(=O)c1csnn1 (stereo not given) > 76.9 µM, CCOC(=O)c1sc(NC(=O)CSc2ccccn2)c(C#N)c1C > 76.9 µM, O=C(CS(=O)(=O)Cc1ccccc1)N1CCN(C(=O)c2ccco2)CC1 > 76.9 µM, CC(=O)c1cc2c(cc1NC(=O)c1cc3nc(C(C)C)cc(C(F)(F)F)n3n1)OCO2 > 76.9 µM, CC(=O)N1CCN(CC(=O)Nc2c(Cl)cc(Cl)cc2Cl)CC1 > 76.9 µM, CCOC(=O)N1CCN(Cc2cn3ccccc3n2)CC1 > 76.9 µM, O=C(NCCCN1CCCC1=O)NC12CC3CC(CC(C3)C1)C2 > 76.9 µM, O=C(CSc1nnnn1-c1ccc2c(c1)OCCO2)Nc1nc2c(s1)CCCC2 > 76.9 µM, CCOc1ccccc1OCc1nn2c(-c3ccc(C)cc3)nnc2s1 > 76.9 µM, COc1ccc(N2CCN(C(CNC(=O)c3ccco3)c3cccnc3)CC2)cc1 (stereo not given) > 76.9 µM, CC(C)(C)Sc1ccc(N)nc1 > 76.9 µM, NC(=O)C1CCN(CCC(=O)Nc2cccc(Cl)c2)CC1 > 76.9 µM, O=C1CCCCCN1C(=O)c1cccc(C(=O)N2CCCCCC2=O)c1 > 76.9 µM, CCCCN(C(=O)CN1C(=O)C2CC=CCC2C1=O)c1c(N)n(CCC)c(=O)[nH]c1=O (stereo not given) > 76.9 µM, COc1ccc(S(=O)(=O)NC(C(C)C)C(C)C)cc1OC > 76.9 µM, CCC1(C)Cc2c(sc3c2c2ncnn2c2nnc(SCC(=O)NCc4ccco4)n32)CO1 (stereo not given) > 76.9 µM, COc1ccc(-c2noc(CN(C)S(=O)(=O)c3ccc(C)cc3)n2)cc1 > 76.9 µM, COc1ccccc1-c1n[nH]c(=S)o1 > 76.9 µM, CCCSc1nc2c(c(=O)n1-c1ccc(OCC)cc1)SCC2 > 76.9 µM, Cc1ccc(-c2nnc3c4ccccc4c(C)nn23)cc1S(=O)(=O)N1CCN(CCO)CC1, COCCNCC#CCOc1ccc(OC)cc1 > 76.9 µM, Cc1cccc2cc(CN(CCc3ccccc3)C(=O)N3CCOCC3)c3nnnn3c12 > 76.9 µM, CCN(CC)S(=O)(=O)c1ccc(NC2c3ncccc3C(=O)N2Cc2ccccc2)cc1 (stereo not given) > 76.9 µM, COc1ccc(NC(=O)c2oc3ccccc3c2NC(=O)c2ccc(OC)c(OC)c2)c(OC)c1 > 76.9 µM, COc1ccc(S(=O)(=O)N(C)CC(=O)N2CCCCC2)cc1Cl > 76.9 µM, O=C(c1ccc(C#CC2(O)CCCCC2)cc1)N1CCOCC1 > 76.9 µM, COc1cccc(OC)c1OCCCSc1nc(C)cc(=O)[nH]1 > 76.9 µM, COc1cccc(OCC(O)CN2CC(C)CC(C)C2)c1 (stereo not given) > 76.9 µM, Cc1c(N(C)C(=O)C23CC4CC(CC(C4)C2)C3)c(=O)n(-c2ccccc2)n1C > 76.9 µM, O=C(CSc1nnc(-c2cccs2)o1)NCC1CN(Cc2ccccc2)CCO1 (stereo not given) > 76.9 µM, COc1cc(-c2nc(-c3ccc(NC(=O)c4ccc5c(c4)OCO5)cc3)no2)cc(OC)c1OC > 76.9 µM, O=C(COc1ccc(S(=O)(=O)N2CCCC2)cc1Cl)NCc1ccc2c(c1)OCO2 > 76.9 µM, COCCNC(=O)CN(C(=O)Cn1nnc2ccccc21)c1ccc(F)c(Cl)c1 > 76.9 µM, Clc1ccc(-c2nnc(SCc3cn4ccsc4n3)n2CC2CCCO2)cc1 (stereo not given) > 76.9 µM, COc1ccc(CNC(=O)c2cnc(C)cn2)c(OC)c1 > 76.9 µM

Potency, active:
COc1ccccc1N1CCN(Cc2nc(N)nc(Nc3ccc(C)c(Cl)c3)n2)CC1 5.31 µM
